# Assay results published in the supplement of paper PMC8728848.
# The other results are listed elsewhere or left out.
# Key:
# Assay in all cases: glycan array binding signal (z-score within array); higher = stronger binding
# Details in all cases: glycan notation: IUPAC condensed, linker removed
# [1] = target: Gal(b1-3)GlcNAc(b1-6)GalNAc
# Summary of the method: (§1)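 Arrays were curated from the Consortium for Functional Glycomics database, 3228 in total, and kept only where the protein sequence was available. Binding is expressed as a within-array Z-score. This score was averaged across arrays of the same protein sequence at different concentrations or buffers and across linkers, and negative values can be read as non-binding.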
# [2] = target: Gal(b1-3)GlcNAc(b1-6)[Gal(b1-3)]GalNAc
# Summary of the method: as §1
# Gal(b1-3)GlcNAc6S = target: Gal(b1-3)GlcNAc6S
# Summary of the method: as §1
# [3] = target: Gal(b1-3)[Fuc(a1-4)]GlcNAc
# Summary of the method: as §1
# [4] = target: Gal(b1-3)[Fuc(a1-4)]GlcNAc(b1-2)Man
# Summary of the method: as §1
# [5] = target: Gal(b1-3)[Fuc(a1-4)]GlcNAc(b1-2)Man(a1-3)[Gal(b1-3)[Fuc(a1-4)]GlcNAc(b1-2)Man(a1-6)]Man(b1-4)GlcNAc(b1-4)[Fuc(a1-6)]GlcNAc
# Summary of the method: as §1
# [6] = target: Gal(b1-3)[Fuc(a1-4)]GlcNAc(b1-3)Gal(b1-3)[Fuc(a1-4)]GlcNAc
# Summary of the method: as §1
# [7] = target: Gal(b1-3)[Fuc(a1-4)]GlcNAc(b1-3)Gal(b1-4)[Fuc(a1-3)]GlcNAc
# Summary of the method: as §1
# [8] = target: Gal(b1-3)[Fuc(a1-4)]GlcNAc(b1-6)GalNAc
# Summary of the method: as §1
# [9] = target: Gal(b1-3)[GlcNAc(b1-6)]GalNAc
# Summary of the method: as §1
# [10] = target: Gal(b1-3)[Neu5Ac(a2-6)]GalNAc
# Summary of the method: as §1
# [11] = target: Gal(b1-3)[Neu5Ac(a2-6)]GlcNAc(b1-4)Gal(b1-4)Glc
# Summary of the method: as §1
# [12] = target: Gal(b1-3)[Neu5Ac(b2-6)]GalNAc
# Summary of the method: as §1
# Gal(b1-4)Gal = target: Gal(b1-4)Gal
# Summary of the method: as §1
# [13] = target: Gal(b1-4)GalNAc(a1-3)[Fuc(a1-2)]Gal(b1-4)GlcNAc
# Summary of the method: as §1
# [14] = target: Gal(b1-4)GalNAc(b1-3)[Fuc(a1-2)]Gal(b1-4)GlcNAc
# Summary of the method: as §1
# Gal(b1-4)Glc = target: Gal(b1-4)Glc
# Summary of the method: as §1
# Gal(b1-4)Glc6S = target: Gal(b1-4)Glc6S
# Summary of the method: as §1
# Gal(b1-4)GlcNAc = target: Gal(b1-4)GlcNAc
# Summary of the method: as §1
# [15] = target: Gal(b1-4)GlcNAc(a1-6)Gal(b1-4)GlcNAc
# Summary of the method: as §1
# Gal(b1-4)GlcNAc(b1-2)Man = target: Gal(b1-4)GlcNAc(b1-2)Man
# Summary of the method: as §1
# [16] = target: Gal(b1-4)GlcNAc(b1-2)Man(a1-3)Man(b1-4)GlcNAc(b1-4)GlcNAc
# Summary of the method: as §1
# [17] = target: Gal(b1-4)GlcNAc(b1-2)Man(a1-3)[Gal(b1-4)GlcNAc(b1-2)Man(a1-6)]Man(b1-4)GlcNAc(b1-4)GlcNAc
# Summary of the method: as §1
# [18] = target: Gal(b1-4)GlcNAc(b1-2)Man(a1-3)[Gal(b1-4)GlcNAc(b1-2)Man(a1-6)]Man(b1-4)GlcNAc(b1-4)[Fuc(a1-6)]GlcNAc
# Summary of the method: as §1
# [19] = target: Gal(b1-4)GlcNAc(b1-2)Man(a1-3)[Gal(b1-4)GlcNAc(b1-2)Man(a1-6)][Gal(b1-4)GlcNAc(b1-4)]Man(b1-4)GlcNAc(b1-4)[Fuc(a1-6)]GlcNAc
# Summary of the method: as §1
# [20] = target: Gal(b1-4)GlcNAc(b1-2)Man(a1-3)[Gal(b1-4)GlcNAc(b1-2)Man(a1-6)][GlcNAc(b1-4)]Man(b1-4)GlcNAc(b1-4)[Fuc(a1-6)]GlcNAc
# Summary of the method: as §1
# [21] = target: Gal(b1-4)GlcNAc(b1-2)Man(a1-3)[GlcNAc(b1-2)Man(a1-6)]Man(b1-4)GlcNAc(b1-4)GlcNAc
# Summary of the method: as §1
# [22] = target: Gal(b1-4)GlcNAc(b1-2)Man(a1-3)[GlcNAc(b1-4)][Gal(b1-4)GlcNAc(b1-2)Man(a1-6)]Man(b1-4)GlcNAc(b1-4)GlcNAc
# Summary of the method: as §1
# [23] = target: Gal(b1-4)GlcNAc(b1-2)Man(a1-3)[Man(a1-6)]Man(b1-4)GlcNAc(b1-4)GlcNAc
# Summary of the method: as §1
# [24] = target: Gal(b1-4)GlcNAc(b1-2)Man(a1-6)Man(b1-4)GlcNAc(b1-4)GlcNAc
# Summary of the method: as §1
# [25] = target: Gal(b1-4)GlcNAc(b1-2)Man(a1-6)[GlcNAc(b1-2)Man(a1-3)]Man(b1-4)GlcNAc(b1-4)GlcNAc
# Summary of the method: as §1
# [26] = target: Gal(b1-4)GlcNAc(b1-2)Man(a1-6)[Man(a1-3)]Man(b1-4)GlcNAc(b1-4)GlcNAc
# Summary of the method: as §1
# [27] = target: Gal(b1-4)GlcNAc(b1-2)[Gal(b1-4)GlcNAc(b1-4)]Man(a1-3)[Gal(b1-4)GlcNAc(b1-2)Man(a1-6)]Man(b1-4)GlcNAc(b1-4)GlcNAc
# Summary of the method: as §1
# [28] = target: Gal(b1-4)GlcNAc(b1-2)[Gal(b1-4)GlcNAc(b1-4)]Man(a1-3)[Gal(b1-4)GlcNAc(b1-2)[Gal(b1-4)GlcNAc(b1-6)]Man(a1-6)]Man(b1-4)GlcNAc(b1-4)GlcNAc
# Summary of the method: as §1
# [29] = target: Gal(b1-4)GlcNAc(b1-2)[Gal(b1-4)GlcNAc(b1-4)]Man(a1-3)[GlcNAc(b1-4)][Gal(b1-4)GlcNAc(b1-2)Man(a1-6)]Man(b1-4)GlcNAc(b1-4)GlcNAc
# Summary of the method: as §1
# [30] = target: Gal(b1-4)GlcNAc(b1-2)[Gal(b1-4)GlcNAc(b1-4)]Man(a1-3)[GlcNAc(b1-4)][Gal(b1-4)GlcNAc(b1-2)[Gal(b1-4)GlcNAc(b1-6)]Man(a1-6)]Man(b1-4)GlcNAc(b1-4)GlcNAc
# Summary of the method: as §1
# [31] = target: Gal(b1-4)GlcNAc(b1-2)[Gal(b1-4)GlcNAc(b1-6)]Man(a1-6)[Gal(b1-4)GlcNAc(b1-2)Man(a1-3)]Man(b1-4)GlcNAc(b1-4)GlcNAc
# Summary of the method: as §1
binder,measurement,setting,value
"Epa9 (Candida glabrata), CAGL0A01386g (protein) MGSSHHHHHHSSGLVPRGSHMDITPFAHYPRPEGCSSPPNAVSVGLHMDLYNYPYLYVKNPRTGFTNDTDSDADGETDGDSAGGIEGRAGQCWNPEYQDPNFPRYGYKKYGSFGSSDHVNGKISWDHNEFKEGCKPIMARLPTAYNYPAKITFSNFTMVLSGYFKPKSTGLYKFEIHADDFILFNFGSKNAFECCNREESIDNFGPYVAYAMWPNEADQELEVYLFEDSYYPIRLFYNNRDYHSKFMVGFYPPNTEEITYDFDGYLYMLDDTGNECKDSIRYKTVCDD",glycan array binding signal (z-score),[1],-0.392
same,glycan array binding signal (z-score),[2],0.864
same,glycan array binding signal (z-score),Gal(b1-3)GlcNAc6S,-0.028
same,glycan array binding signal (z-score),[3],-0.398
same,glycan array binding signal (z-score),[4],-0.431
same,glycan array binding signal (z-score),[5],-0.377
same,glycan array binding signal (z-score),[6],-0.443
same,glycan array binding signal (z-score),[7],-0.461
same,glycan array binding signal (z-score),[8],-0.345
same,glycan array binding signal (z-score),[9],0.878
same,glycan array binding signal (z-score),[10],0.269
same,glycan array binding signal (z-score),[11],-0.329
same,glycan array binding signal (z-score),[12],-0.225
same,glycan array binding signal (z-score),Gal(b1-4)Gal,-0.43
same,glycan array binding signal (z-score),[13],0.148
same,glycan array binding signal (z-score),[14],0.692
same,glycan array binding signal (z-score),Gal(b1-4)Glc,0.01
same,glycan array binding signal (z-score),Gal(b1-4)Glc6S,1.23
same,glycan array binding signal (z-score),Gal(b1-4)GlcNAc,0.529
same,glycan array binding signal (z-score),[15],2.28
same,glycan array binding signal (z-score),Gal(b1-4)GlcNAc(b1-2)Man,-0.422
same,glycan array binding signal (z-score),[16],1.01
same,glycan array binding signal (z-score),[17],1.23
same,glycan array binding signal (z-score),[18],0.479
same,glycan array binding signal (z-score),[19],0.199
same,glycan array binding signal (z-score),[20],0.633
same,glycan array binding signal (z-score),[21],0.541
same,glycan array binding signal (z-score),[22],0.202
same,glycan array binding signal (z-score),[23],0.83
same,glycan array binding signal (z-score),[24],0.135
same,glycan array binding signal (z-score),[25],0.1
same,glycan array binding signal (z-score),[26],-0.034
same,glycan array binding signal (z-score),[27],1.96
same,glycan array binding signal (z-score),[28],1.94
same,glycan array binding signal (z-score),[29],1.34
same,glycan array binding signal (z-score),[30],1.96
same,glycan array binding signal (z-score),[31],1.4
